Experimental data as given in PubChem BioAssay AID1347417 (National Center for Advancing Translational Sciences (NCATS), 2020).
Values joined by “and” are separate entries in the source; they are usually repeats but may differ in a detail not shown here. Equal entries are not always repeated. In all, about 120,000 compounds went through this assay and about 5,300 (4.4%) were called active. Inconclusive results, whose numbers are uncertain, are shown with a selection of clear calls. Calls follow the shape of the dose curve; as a rule, active = well fitted inhibition curve with a large enough effect; inconclusive = small, poorly fitted or top-dose-only effect; inactive = no such curve, though single readings can be large or run the other way. Potencies beside an inconclusive call are fits to weak or partial responses and may not hold up.

Test: qHTS Primary assay for Inhibitors of Plasmodium falciparum Dd2 growth in vitro; also: nearly all actives have a fitted effect of over 65% in size;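 as to activity, negative = inhibition: plate controls were DMSO vehicle for no effect and reference drug for full effect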
Details: P. falciparum Dd2 growth, SYBR Green, 72 h; activity, negative = inhibition: at 28.9 µM (top of the series) unless noted; series mostly up to 28.9 µM
Summary of the method: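 Infected erythrocytes (Dd2, 0.3% parasitemia, 2.5% hematocrit final) are added to compound in RPMI-1640/Albumax II medium, grown 72 h at 37C in low oxygen, then lysed with saponin/Triton-X containing SYBR Green and read by fluorescence.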
Potency is read from the fitted curve at half-maximal effect; tags tell the direction and shape of the fitted curve.

Row | Compound | activity, negative = inhibition | Potency | outcome
1 | COCCNC(=O)NC[C@H]1O[C@@H]2C[C@@H](CC(=O)N3CCOCC3)O[C@@H]2[C@@H]1O | inactive: 7.95% [at 44.1 µM] |  | 
2 | COc1cccc(-c2cc(C3CCN(C(=O)Nc4cccc(C)c4)CC3)[nH]n2)c1 |  | inconclusive: 2.51 µM [inhibitor, partial curve, poor fit] | 
3 | COc1ccccc1CN1CCCn2nc(C)c(-c3cccnc3N3CCOCC3)c21 |  |  | inactive [at 44.1 µM]
4 | CCCS(=O)(=O)N1CCC(c2noc(COc3ccc(C)cc3)n2)CC1 |  | inconclusive: 20 µM [inhibitor, single point] | 
5 | CCN(CC)c1ccc(C2C(C(N)=O)=C(C)Nc3ncnn32)cc1 (configuration not stated) | inactive: 33.3% |  | 
6 | O=C(Nc1ccc(Oc2ccccc2)cc1)O[C@@H]1CO[C@H]2[C@@H]1OC[C@@H]2NCC1CCCCC1 |  | inconclusive: 7.94 µM [inhibitor, single point] | 
7 | CCCc1noc(-c2ccn3c(CNC(=O)c4cccc(C)c4)nnc3c2)n1 |  | inconclusive: 1.41 µM [inhibitor, partial curve, poor fit] | 
8 | Cn1cccc1C(=O)N1CCc2nn(Cc3ccccc3)c(=O)n2CC1 |  | inconclusive: 14.1 µM [inhibitor, single point] | 
9 | CCCCOCc1cc(CN2CCN(c3cccc(Cl)c3)CC2)c(O)c2ncccc12 |  | active: 1 µM | 
10 | O=C(C1CCC1)N1CCCC(n2cc(-c3nc(-c4ccccc4)no3)nn2)C1 (configuration not stated) |  | inconclusive: 3.98 µM [inhibitor, single point] | 
11 | CCO[C@H]1CN(C(=O)CCc2ccc(-c3ccccc3)cc2)C[C@@H]1O | inactive: -11.5% |  | 
12 | O=C(Cn1nc2n(c1=O)CCCC2)Nc1ccc(F)c(Cl)c1 | inactive: 30.7% |  | 
13 | COc1cccc(N2C(=O)NC(=NC3CCCCC3)C23CCN(Cc2ccc(F)cc2)CC3)c1 |  | inconclusive: 7.94 µM [inhibitor, partial curve, poor fit] | 
14 | N#Cc1cccnc1N1CCCC(CO)(Cc2ccc(F)cc2F)C1 (configuration not stated) |  | inconclusive: 12.6 µM [inhibitor, single point] | 
15 | COc1ccccc1CNC(=O)CC1COCCN1C(=O)C1CCCCC1 (configuration not stated) | inactive: 3.4% |  | 
16 | Clc1ccc2nc(N3CCC(NCCc4cccnc4)CC3)sc2c1 |  | active: 11.2 µM | 
17 | O=C(CCC[C@@H]1[C@H]2CCCN3CCC[C@@H](CN1Cc1ccccc1)[C@@H]23)NCCCn1cccn1 |  | inconclusive: 2.24 µM [inhibitor, single point] | 
18 | CCN1CCC(N(Cc2ccc3c(c2)OCO3)C(=O)Nc2ccc(Br)c(C)c2)CC1 |  | inconclusive: 10 µM [inhibitor, single point] | 
19 | COCCc1noc(-c2ccccc2OC2CN(C(=O)c3ccc(C)nc3)C2)n1 |  | inconclusive: 4.47 µM [inhibitor, full curve, poor fit] | 
20 | Cc1noc2c(-c3cccnc3NCc3cccnc3)cc(-c3ccccc3)nc12 |  | inconclusive: 31.6 µM [inhibitor, single point] | 
21 | Cc1nc2c(c(N(C)Cc3noc(C4CCCC4)n3)n1)CCNCC2 |  | inconclusive: 11.2 µM [inhibitor, single point] | 
22 | O=C(c1ccc2c(=O)n(CCc3ccccc3)c(=O)[nH]c2c1)N1CCN(c2ccc(Cl)cc2)CC1 |  | inconclusive: 15.8 µM [inhibitor, single point] | 
23 | CSc1ccccc1NC(=O)c1cnc(-c2ccc(C)cc2)nc1-c1ccncc1 |  |  | inactive

Row | Compound | activity, negative = inhibition | Potency | outcome
24 | CC1=NS(=O)(=O)N(Cc2ccccc2)C=C1C(=O)OCc1nc(-c2ccc3c(c2)OCO3)no1 |  | inconclusive: 12.6 µM [inhibitor, single point] | 
25 | CS(=O)(=O)N1CCCC(C(=O)Nc2ccc(F)cc2F)CCNC(=O)CC1 (configuration not stated) | inactive: 8.36% |  | 
26 | COc1ccc(C(=O)NC2CCN(c3cc(-c4ccccc4)[nH]n3)CC2)cc1OC |  | inconclusive: 3.98 µM [inhibitor, single point] | 
27 | Cc1cc(S(=O)(=O)N[C@@H]2CN(C)C[C@H]2CN(C)C)ccc1Cl |  | inconclusive: 7.94 µM [inhibitor, partial curve, poor fit] | 
28 | COCCCNC(=O)CCc1c(C)nc2cc(-c3ccc(Cl)cc3)nn2c1C |  | inconclusive: 11.2 µM [inhibitor, single point] | 
29 | COc1ccccc1C(=O)N1CCCC2(COc3ccccc3C(=O)N2)C1 (configuration not stated) |  | inconclusive: 2.51 µM [inhibitor, single point] | 
30 | COc1ccccc1NC(=O)C1=C(C)Nc2nc(SCc3cc(C)ccc3C)nn2C1c1ccccc1 (configuration not stated) |  | inconclusive: 12.6 µM [inhibitor, single point] | 
31 | COc1ccccc1N1CCN(C(=O)C2CC(=O)N(c3n[nH]c4cccc(F)c34)C2)CC1 (configuration not stated) |  | active: 7.08 µM | 
32 | O=C(NC1CCN(c2cc(-c3ccc(Cl)cc3)[nH]n2)C1)c1ccc2c(c1)OCO2 (configuration not stated) |  | inconclusive: 7.94 µM [inhibitor, partial curve, poor fit] | 
33 | COc1cccc(CN2CCc3c(cc(C(=O)N4CCN(CC(C)C)CC4)n3C)C2)c1 |  | active: 6.31 µM | 
34 | COc1ccc(C(=O)N2CCc3ccc(C(=O)Nc4ccc(OC)cc4C)cc32)cc1 |  | inconclusive: 4.47 µM [inhibitor, partial curve] | 
35 | COCCn1c(=O)[nH]c2cccnc21 | inactive: -6.59% [at 44.1 µM] |  | 
36 | CNC(=O)N1CCC(C2CCN(S(=O)(=O)Cc3ccc(C)cc3)C2)CC1 (configuration not stated) | inactive: -13.6% |  | 
37 | COCC1CN(C(=O)NC2CCCC2)CC12CCNCC2 (configuration not stated) |  | inconclusive: 3.98 µM [inhibitor, single point] | 
38 | Cc1ccc(Cl)cc1N1CCN(C(=O)c2ccc(C)c(-n3c(C)nc4cccnc43)c2)CC1 |  | inconclusive: 17.8 µM [inhibitor, single point] | 
39 | Cc1ccc(NC(=O)N2CCOCCNC(=O)[C@H]3CCCC[C@H]32)cc1C | inactive: -7.5% |  | 
40 | Cc1cccc(S(=O)(=O)c2cn(Cc3ccccc3)c3cc(N4CCCCC4C)c(F)cc3c2=O)c1 (configuration not stated) |  | inconclusive: 17.8 µM [inhibitor, single point] | 
41 | COCCOC1CCOC2(CCN(C(=O)COc3ccccc3)CC2)C1 (configuration not stated) |  | active: 11.2 µM | 
42 | COc1cccc(NC(=O)/C(C#N)=C\c2cn(Cc3ccc(Cl)cc3)c3ccccc23)c1 |  | inconclusive: 17.8 µM [inhibitor, single point] | 
43 | CCn1ncc(NC(=O)Cn2ncc3cc(-c4ccc(N(C)C)cc4)ccc32)n1 |  | inconclusive: 3.98 µM [inhibitor, single point] | 
44 | CC1=C[C@@H](CNC(C)C)[C@H](C(C)C)C[C@H]1Cc1nnc(-c2ccc([N+](=O)[O-])cc2)o1 |  | inconclusive: 1.41 µM [inhibitor, partial curve, poor fit] | 
45 | CC(C)CN1CCN(C(=O)C2CCCN(S(=O)(=O)c3ccccc3)CCC(=O)NCC2)CC1 (configuration not stated) | inactive: -7.39% |  | 
46 | CN1C[C@@H](NC(=O)c2ccc(C#N)cc2)C[C@H]1c1nc(Cc2ccccc2)no1 |  | inconclusive: 12.6 µM [inhibitor, partial curve] | 

Row | Compound | activity, negative = inhibition | Potency | outcome
47 | CCc1ccc(-c2nn(CC(=O)NC3CCCCC3)c3c2cnc2ccc(OC)cc23)cc1 |  | inconclusive: 1.12 µM [inhibitor, full curve] | 
48 | COc1ccc2c(c1)CN(C(=O)C1CCCC1)CC[C@H]1COC(=O)N21 |  | inconclusive: 31.6 µM [inhibitor, single point] | 
49 | CN(C)[C@@H]1CN(C(=O)C2CCC2)CC[C@@H]1CO | inactive: -2.87% |  | 
50 | O=C(NC1CCCCC1)N1CCC(c2noc(C3CC3)n2)C1 (configuration not stated) |  |  | inactive [at 5.79 µM]
51 | CC1CCCCN1S(=O)(=O)c1ccc2c(c1)oc(=O)n2CC(=O)Nc1ccc(Cl)cc1 (configuration not stated) |  | inconclusive: 11.2 µM [inhibitor, single point] | 
52 | CCCn1c(C)cnc1CC1CCCN(C(=O)CCOC)C1 (configuration not stated) | inactive: -12.5% |  | 
53 | c1ccc2c(-c3nc4ccncc4[nH]3)c[nH]c2c1 |  | inconclusive: 39.8 µM [inhibitor, single point] and active: 12.6 µM | 
54 | Cc1ccc(-c2cc(-c3cccnc3)nc3c(C)noc23)c(C)c1 |  | inconclusive: 3.16 µM [inhibitor, single point] | 
55 | Cc1ccccc1Nc1nn2c(=O)c3ccc(C(=O)N4CCCC(C)C4)cc3nc2s1 (configuration not stated) |  |  | inactive
56 | O=c1c2[nH]c3ccccc3c2nc(SCc2cccc(F)c2)n1-c1ccccc1 |  | inconclusive: 10 µM [inhibitor, single point] | 
57 | COC1CCN(C(=O)Cn2c3c(c(=O)n2Cc2ccccc2)CCN(Cc2ccccc2)C3)CC1 | inactive: 20.8% |  | 
58 | O=C(C1CC(=O)N(c2n[nH]c3cccc(F)c23)C1)N1CCc2ccccc2C1 (configuration not stated) |  |  | inactive
59 | CO[C@H]1COCCN(C(=O)c2cccc(F)c2)C1 | inactive: 13.2% [at 44.1 µM] |  | 
60 | Cc1ccc(CN2C(=O)[C@@H]3C[C@@H](O)CN3C3(CN(C4CCCC4)C3)C2=O)o1 |  |  | inactive [at 44.1 µM]
61 | COc1ccccc1CNC(=O)CCCCn1c(=O)c2ccccc2n(CC(=O)Nc2cc(Cl)ccc2C)c1=O |  | inconclusive: 11.2 µM [inhibitor, partial curve] | 
62 | COc1ccc(-c2ccc3c(c2)C(=O)N2CCN(C(=O)c4ccccc4)C[C@@H]2C(=O)N3)cc1 |  | active: 5.01 µM | 
63 | O=C(c1ccc2[nH]ncc2c1)N1CCOCC12CCN(CCCc1ccccc1)CC2 |  | inconclusive: 0.631 µM [inhibitor, full curve, poor fit] | 
64 | CCCN1CCNc2cc(Nc3ccccc3)ncc2C1 |  | active: 8.91 µM | 
65 | O=C(NCCc1ccccc1)N1CCCC(Cn2c(C3CC3)nc3cccnc32)C1 (configuration not stated) |  |  | inactive
66 | O=C(NCc1nc(-c2ncccn2)no1)c1csc(-c2cccs2)n1 |  | inconclusive: 1.12 µM [inhibitor, partial curve] | 
67 | CCOC(=O)CCNC(=O)N1CCCCCCn2c(nnc2-c2ccc(F)cc2)CC1 |  |  | inactive
